Results reported in the supplement of paper PMC4967469.
By IC50 is meant the dose at which the fit gives 50% viability; a limit (>, <) means that the fit lies beyond the doses tested. AUC is the area under the same curve over the 256-fold range up to the top dose, as a fraction; the more sensitive the line, the further below 1. The top dose, if marked as inferred, was derived from the fitted curves, not read from the paper.

Columns and labels:
Test in all cases: Viability of human cancer cell lines after 72 h of drug (GDSC screen)
Bryostatin 1 = compound: CCC/C=C/C=C/C(=O)O[C@H]1/C(=C/C(=O)OC)C[C@H]2C[C@H]([C@@H](C)O)OC(=O)C[C@H](O)C[C@@H]3C[C@H](OC(C)=O)C(C)(C)[C@](O)(C[C@@H]4C/C(=C/C(=O)OC)C[C@H](/C=C/C(C)(C)[C@]1(O)O2)O4)O3 [Bryostatin 1]; conditions: top dose 0.008 µM; top dose inferred
Procedure: (§1)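 Human cancer cell lines in 384-well plates, medium with 10% serum, drug for 72 h over a 256-fold dose range (nine 2-fold or five 4-fold steps up to the top dose). Adherent lines were fixed and stained with the nucleic acid dye Syto60, suspension lines read with resazurin; signal relative to control wells, capped at 0 and 100%. One two-parameter sigmoid per drug and line, fitted in a mixed model over all curves with the slope shared within a line.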

GW-2580 = compound: COc1ccc(COc2ccc(Cc3cnc(N)nc3N)cc2OC)cc1 [GW-2580]; conditions: top dose 20 µM; top dose inferred
Procedure: as §1

SGC0946 = compound: CC(C)N(CCCNC(=O)Nc1ccc(C(C)(C)C)cc1)C[C@H]1O[C@@H](n2cc(Br)c3c(N)ncnc32)[C@H](O)[C@@H]1O [SGC0946]; conditions: top dose 0.5 µM; top dose inferred
Procedure: as §1

“ChaGo-K-1 (non-small cell lung carcinoma, adherent)” showed an AUC (Bryostatin 1) of 0.958, an IC50 (Bryostatin 1) of over 8 nM and an AUC (GW-2580) of 0.983. For the same cell line, the IC50 (GW-2580) was over 20000 nM, the AUC (SGC0946) was 0.983 and the IC50 (SGC0946) was over 500 nM.

For NUGC-3 (stomach, adherent), the AUC (Bryostatin 1) was 0.968, the IC50 (Bryostatin 1) was over 8 nM and the AUC (GW-2580) was 0.983. For the same cell line, the IC50 (GW-2580) was over 20000 nM, the AUC (SGC0946) was 0.982 and the IC50 (SGC0946) was over 500 nM.

“COR-L105 (lung adenocarcinoma, adherent)” showed an AUC (Bryostatin 1) of 0.955, an IC50 (Bryostatin 1) of over 8 nM and an AUC (GW-2580) of 0.968. It also gave an IC50 (GW-2580) of over 20000 nM, an AUC (SGC0946) of 0.979 and an IC50 (SGC0946) of over 500 nM.

For “NCI-H1915 (large cell lung carcinoma, adherent)”, the AUC (Bryostatin 1) was 0.988, the IC50 (Bryostatin 1) was over 8 nM and the AUC (GW-2580) was 0.986. The IC50 (GW-2580) was over 20000 nM, the AUC (SGC0946) was 0.986 and the IC50 (SGC0946) was over 500 nM.

With KOSC-2 (head and neck, adherent) the AUC (Bryostatin 1) was 0.983, the IC50 (Bryostatin 1) was over 8 nM and the AUC (GW-2580) was 0.985. The IC50 (GW-2580) was over 20000 nM, the AUC (SGC0946) was 0.984 and the IC50 (SGC0946) was over 500 nM.

For OPM-2 (myeloma, suspension), the AUC (Bryostatin 1) was 0.986, the IC50 (Bryostatin 1) was over 8 nM and the AUC (GW-2580) was 0.993. The IC50 (GW-2580) was over 20000 nM, the AUC (SGC0946) was 0.993 and the IC50 (SGC0946) was over 500 nM.

Cell Line A204 (rhabdomyosarcoma, adherent) has an AUC (Bryostatin 1) of 0.956, an IC50 (Bryostatin 1) of over 8 nM and an AUC (GW-2580) of 0.977. For the same cell line, the IC50 (GW-2580) was over 20000 nM, the AUC (SGC0946) was 0.975 and the IC50 (SGC0946) was over 500 nM.

HPAF-II (pancreas, adherent) showed an AUC (Bryostatin 1) of 0.914, an IC50 (Bryostatin 1) of over 8 nM and an AUC (GW-2580) of 0.958. The IC50 (GW-2580) was over 20000 nM, the AUC (SGC0946) was 0.978 and the IC50 (SGC0946) was over 500 nM.

For BFTC-909 (kidney, adherent), the AUC (Bryostatin 1) was 0.972, the IC50 (Bryostatin 1) was over 8 nM and the AUC (GW-2580) was 0.986. The IC50 (GW-2580) was over 20000 nM, the AUC (SGC0946) was 0.987 and the IC50 (SGC0946) was over 500 nM.

In the case of “NCI-H1299 (large cell lung carcinoma, adherent)”, the AUC (Bryostatin 1) is reported as 0.869, the IC50 (Bryostatin 1) is reported as over 8 nM and the AUC (GW-2580) is reported as 0.974. For the same cell line, the IC50 (GW-2580) was over 20000 nM, the AUC (SGC0946) was 0.98 and the IC50 (SGC0946) was over 500 nM.

With RERF-GC-1B (stomach, adherent) the AUC (Bryostatin 1) was 0.968, the IC50 (Bryostatin 1) was over 8 nM and the AUC (GW-2580) was 0.981. The IC50 (GW-2580) was over 20000 nM, the AUC (SGC0946) was 0.983 and the IC50 (SGC0946) was over 500 nM.

Cell Line “NCI-H2030 (lung adenocarcinoma, adherent)” has an AUC (Bryostatin 1) of 0.85, an IC50 (Bryostatin 1) of 7.38 nM and an AUC (GW-2580) of 0.981. It also gave an IC50 (GW-2580) of over 20000 nM, an AUC (SGC0946) of 0.98 and an IC50 (SGC0946) of over 500 nM.

In the case of SK-CO-1 (large intestine, adherent), the AUC (Bryostatin 1) is reported as 0.986, the IC50 (Bryostatin 1) is reported as over 8 nM and the AUC (GW-2580) is reported as 0.971. It also gave an IC50 (GW-2580) of over 20000 nM, an AUC (SGC0946) of 0.985 and an IC50 (SGC0946) of over 500 nM.

Work on MDA-MB-157 (breast, adherent) yielded an AUC (Bryostatin 1) of 0.96, an IC50 (Bryostatin 1) of over 8 nM and an AUC (GW-2580) of 0.978. It also gave an IC50 (GW-2580) of over 20000 nM, an AUC (SGC0946) of 0.987 and an IC50 (SGC0946) of over 500 nM.

Cell Line RT-112 (bladder, adherent) has an AUC (Bryostatin 1) of 0.873, an IC50 (Bryostatin 1) of over 8 nM and an AUC (GW-2580) of 0.984. The IC50 (GW-2580) was over 20000 nM, the AUC (SGC0946) was 0.964 and the IC50 (SGC0946) was over 500 nM.

Work on SNU-398 (liver, adherent) yielded an AUC (Bryostatin 1) of 0.984, an IC50 (Bryostatin 1) of over 8 nM and an AUC (GW-2580) of 0.983. The IC50 (GW-2580) was over 20000 nM, the AUC (SGC0946) was 0.984 and the IC50 (SGC0946) was over 500 nM.

For HeLa (cervix, adherent), the AUC (Bryostatin 1) was 0.967, the IC50 (Bryostatin 1) was over 8 nM and the AUC (GW-2580) was 0.988. The IC50 (GW-2580) was over 20000 nM, the AUC (SGC0946) was 0.981 and the IC50 (SGC0946) was over 500 nM.

Cell Line LNCaP-Clone-FGC (prostate, adherent) has an AUC (Bryostatin 1) of 0.973, an IC50 (Bryostatin 1) of over 8 nM and an AUC (GW-2580) of 0.955. The IC50 (GW-2580) was over 20000 nM, the AUC (SGC0946) was 0.862 and the IC50 (SGC0946) was over 500 nM.
